Experimental data: PMC4336329 (PLoS ONE, 2015)
Hit rate of the full screen: of about 310,000 compounds, about 2,200 (0.71%) showed an effect of 50% or more. Effects have a minus sign here. This is one part of the list.

target: human ether-à-go-go-related gene (hERG) potassium channel (human, UniProt Q12809); assay: primary screen, population patch clamp on CHO cells stably expressing hERG
Sequence (Q12809 whole entry, looked up): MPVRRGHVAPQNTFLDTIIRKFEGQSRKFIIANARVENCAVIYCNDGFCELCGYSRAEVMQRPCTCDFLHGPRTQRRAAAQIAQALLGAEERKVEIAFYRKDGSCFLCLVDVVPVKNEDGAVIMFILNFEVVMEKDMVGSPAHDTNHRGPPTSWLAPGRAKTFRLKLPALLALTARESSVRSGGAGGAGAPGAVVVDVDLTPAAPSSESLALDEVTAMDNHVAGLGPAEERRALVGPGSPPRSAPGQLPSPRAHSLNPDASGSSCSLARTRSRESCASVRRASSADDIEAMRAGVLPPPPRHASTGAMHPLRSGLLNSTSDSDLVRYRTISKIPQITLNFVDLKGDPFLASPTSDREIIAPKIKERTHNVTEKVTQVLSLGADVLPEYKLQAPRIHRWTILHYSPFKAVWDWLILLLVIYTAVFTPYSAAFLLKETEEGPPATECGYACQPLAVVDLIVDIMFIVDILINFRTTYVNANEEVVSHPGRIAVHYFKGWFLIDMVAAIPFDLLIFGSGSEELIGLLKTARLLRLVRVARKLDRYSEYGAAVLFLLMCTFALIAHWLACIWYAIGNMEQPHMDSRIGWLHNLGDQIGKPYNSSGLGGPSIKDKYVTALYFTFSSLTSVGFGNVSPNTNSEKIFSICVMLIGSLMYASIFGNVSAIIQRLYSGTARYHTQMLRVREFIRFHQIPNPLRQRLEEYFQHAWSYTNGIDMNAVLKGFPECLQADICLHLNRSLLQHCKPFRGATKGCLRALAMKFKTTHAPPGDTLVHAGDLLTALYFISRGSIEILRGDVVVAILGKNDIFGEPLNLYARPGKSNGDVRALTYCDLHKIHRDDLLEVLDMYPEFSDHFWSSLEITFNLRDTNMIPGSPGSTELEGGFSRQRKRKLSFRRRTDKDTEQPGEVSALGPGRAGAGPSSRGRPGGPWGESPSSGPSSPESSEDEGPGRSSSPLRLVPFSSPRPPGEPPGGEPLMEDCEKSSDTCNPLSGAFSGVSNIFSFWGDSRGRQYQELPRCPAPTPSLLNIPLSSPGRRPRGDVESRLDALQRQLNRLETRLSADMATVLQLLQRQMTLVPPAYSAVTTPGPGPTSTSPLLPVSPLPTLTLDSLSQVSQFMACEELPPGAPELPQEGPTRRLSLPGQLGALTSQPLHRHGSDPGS

SMILES	hERG current change (%, negative = inhibition) at 1uM [%]
CSCCC(NC(=O)COc1ccccc1)C(=O)N1CCN(c2ccccc2)CC1 (centres unmarked)	-1.18
CC(=O)O[C@H]1CC[C@@]2(C)C(=CC[C@H]3[C@@H]4CC[C@H](C5(C)OCCO5)[C@@]4(C)CC[C@@H]32)C1	18.1
CC(=O)N1CCc2cc(S(=O)(=O)N3CCCCCC3)ccc21	10.6
O=[N+]([O-])c1ccc(S(=O)(=O)N2CCN=C2SCc2ccc(F)cc2)cc1	3.19
COc1ccc2[nH]c(C)c(C(=O)CN3CCN(C(=O)c4ccco4)CC3)c2c1	-7.3
Cc1sc2c(c1C)C(=O)NC(c1ccccc1F)N2 (centres unmarked)	13.6
Cc1ccc(CNC(=O)c2ccc(N3CCC4(CC3)CC(c3ccccc3)=NO4)c(NC(=O)c3cccc(C)c3)c2)cc1	0.306
O=C(NCc1ccc(F)cc1)c1ccc(Br)o1	1.43
CSC(=NC(C)c1ccccc1)NS(=O)(=O)c1cccs1 (centres unmarked)	5.75
CCOC(=O)c1cn2nc(-c3ccc(OC)cc3)cc2nc1C1CCN(C(=O)OC(C)(C)C)CC1	14.9
O=C(Nc1ccc(Cl)cc1)N1CCN(Cc2ccc3c(c2)OCO3)CC1	-4.4
COC(=O)c1cc2c(N)c(C(=O)c3ccccc3)sc2nc1C(OC)OC	8.89
Cc1nc2nc(SCC(=O)c3ccc([N+](=O)[O-])cc3)[nH]c2cc1Br	3.41
CC1CCC(NC(=O)COC(=O)C2=NN(c3ccccc3)C(=O)CC2)CC1 (centres unmarked)	12.4
COc1ccc2cc3c(N)nn(C(=O)c4ccccc4[N+](=O)[O-])c3nc2c1	-1.02
Cc1onc(-c2ccccc2)c1C(=O)N1CCN(S(=O)(=O)c2ccccc2C(F)(F)F)CC1	17.2
CC(=O)C1=C(O)C(=O)N(CC(=O)O)C1c1ccccc1Cl (centres unmarked)	-2.8
Cc1ccc(C)c(C(=O)NCCN(C)C)c1	8.76
COCCN1CCN(Cc2cn(C)nc2-c2ccc(Oc3ccccc3)cc2)CC1	-5.11
CC(=O)N1CCN(c2ccc(NC(=O)c3ccc4c(c3)OCCO4)cc2Cl)CC1	-26.7
CS(=O)(=O)N1CCC(C(=O)Nc2ccc(F)cc2F)CC1	11.3
CS(=O)(=O)c1ccc(-c2cccc(NC(=O)COc3ccccc3)c2)nn1	1.8
O=[N+]([O-])c1cccc(C(=S)N2CCN(c3ccccc3)CC2)c1	4.86

SMILES	hERG current change (%, negative = inhibition) at 1uM [%]
COc1ccc(C(=O)N2CCN(c3ccc(C)cc3)CC2)cc1OC	-3.98
c1ccc(C(c2ccccc2)N2CCN(c3ccc4ccccc4n3)CC2)cc1	3.43
Cc1sc2ncnc(N3CCN(C(=O)c4ccco4)CC3)c2c1C	-13.1
COc1ccc(C(=O)NC(C(=O)NCC2CCCO2)C(C)C)cc1 (centres unmarked)	12.6
COc1ccc(CN2CCN(CCc3ccccc3)C(CCO)C2)cc1Cn1cncn1 (centres unmarked)	-16
Cc1cc(C)n(/C(=C\N(C)C)C(=O)c2cccc([N+](=O)[O-])c2)n1	14.7
Cc1cccc(C)c1OCC(=O)NNC(=O)CCNC(=O)c1ccco1	12.8
O=C1c2ccccc2C(O)N1Cc1ccccc1Cl (centres unmarked)	1.46
S=C=Nc1ccccn1	-4.99
COc1ccc2[nH]c3c(=O)n(CCN4CCOCC4)cnc3c2c1	9.44
CC(C)=CCOc1c2ccoc2cc2oc(=O)ccc12	10.6
COc1cc(-c2nc3sc(C)c(C)c3c(=O)o2)cc(OC)c1OC	18.2
CCN(c1ccccc1)S(=O)(=O)c1ccc(Cl)c(NC(=O)CSc2nncn2C)c1	6.62
CN1CCN(/N=C/c2ccc(C#N)cc2)CC1.Cl	-13
Cc1ccc(-n2ncc3c(SCc4ccccn4)ncnc32)c(C)c1	12.5
Cc1cc(Cl)ccc1NNC(N)=S	9.61
CCCCOc1cc(C(=O)NCCN(CC)CC)c2ccccc2n1	-38.5
O=C(/C=C/c1ccc(F)cc1)NCC1(c2ccccc2)CCOCC1	-9.73
CCOCCCNc1nc2c([nH]1)c(=O)n(C)c(=O)n2C	4.69
CC1=Nc2ccc(C)cc2N(Cc2ccccc2)C(=O)C1	7.75
CC12C(=O)N(c3ccc(C(=O)N4CCOCC4)cc3)C(=O)C1C1c3ccccc3C2c2ccccc21 (centres unmarked)	9.81
CS(=O)(=O)N(CCc1ccccc1)CC(=O)N1CCCC1	7.81
C/C(=N\OC(=O)c1ccc(Cl)cc1)c1nccs1	9.4

SMILES	hERG current change (%, negative = inhibition) at 1uM [%]
C=CCOc1ccccc1C1NC(=O)NC(C)=C1C(=O)NCc1ccccc1 (centres unmarked)	-2.47
O=[N+]([O-])c1cc2c(cc1/C=N\NS(=O)(=O)c1ccccc1)OCO2	16.5
O=c1[nH]c2ccccc2c(O)c1-c1ccccc1	11.8
O=C(/C=C/NCc1cccnc1)C(F)(F)C(F)(F)F	13.2
CCOc1ccc(-n2c(C)cc(/C=N/NC(=O)C(N)=O)c2C)cc1	10.3
COCC(C)n1c(C)cc(C(=O)CSc2nnc(Nc3ccccc3F)s2)c1C (centres unmarked)	6.24
Cc1cccc(C)c1NC(=O)C(=O)c1cn(C)c2ccccc12	12.5
COc1ccc(C(=O)NCCCNC(=O)c2ccc(C)nc2)cc1	21.9
O=C(CCNC(=O)c1ccc([N+](=O)[O-])cc1)NCc1ccco1	3.22
Cc1cc(OCC(=O)NCc2cccnc2)ccc1[N+](=O)[O-]	13
CC(=O)Nc1ccc(S(=O)(=O)Oc2ccc(N3C(=O)C4CCCCC4C3=O)cc2)cc1 (centres unmarked)	15.5
CC1CCCC(NC(=O)CNC(=O)c2cccs2)C1C (centres unmarked)	14.8
COc1ccccc1NC(=O)Nc1cc(NC(=O)Nc2ccccc2OC)c(C)nc1C	14.2
Cc1ccc(-c2nn(-c3ccccc3)cc2C2CC(c3cccs3)=NN2C(=O)CCC(=O)O)cc1 (centres unmarked)	15
Cc1ccccc1OCCCCCCN1CCNCC1.O=C(O)C(=O)O	11.7
COc1ccc(C(=O)N2CCC(CCC(=O)Nc3cccc(C)c3)CC2)cc1	-9.57
O=C(COC(=O)c1cccc(Oc2ccccc2)c1)NCc1ccco1	8.45
CS(=O)(=O)N(CC(=O)N1CCC(C(N)=O)CC1)Cc1ccc(Cl)c(Cl)c1	3.15
Cc1ccsc1/C=N/NC(=O)c1ccc(Cn2cc(Br)cn2)o1	1.2
Cc1cccc(-c2nnc(SCC#N)n2-c2ccccc2)c1	-12.1
CCCCCc1nnc(NC(=O)c2ccc(N3CCCC3=O)cc2)s1	14.3
O=C(NNC(=O)c1ccccc1Cl)c1ccccc1Cl	10
CC1CCCCC1NC(=O)COC(=O)c1ccc2ncsc2c1 (centres unmarked)	11.4

SMILES	hERG current change (%, negative = inhibition) at 1uM [%]
Cc1csc2ncnc(NNC(=O)c3ccc(Cl)cc3)c12	6.19
CSc1ccc(S(=O)(=O)NCC(=O)OCC(=O)NCCc2ccccc2)cc1[N+](=O)[O-]	20
O=C(CCc1ccccc1)NNC(=O)C12CC3CC(CC(C3)C1)C2	-7.42
CSc1ccccc1C(=O)OCC(=O)NC1CCS(=O)(=O)C1 (centres unmarked)	5.16
CCN(CC(=O)Nc1ccc(OC)cc1)C(=O)Cc1cccs1	10
CCC12CN3CCN(CC(C3)/C1=N/NC(N)=O)C2	16.4
Cn1ncc(Cl)c1C(=O)NC1C2CC3CC(C2)CC1C3 (centres unmarked)	9.35
CC(NC(=O)C(C)(C)C)c1nc2ccccc2n1C (centres unmarked)	11.7
CC(C)CN(C(=O)COC(=O)CCCc1nc2ccccc2s1)c1c(N)n(Cc2ccccc2)c(=O)[nH]c1=O	3.55
Oc1c(C=Nc2ccccc2Cl)[nH]c2ccccc12	12.6
Cc1c(C(=O)OCC(=O)NCc2ccc3c(c2)OCO3)cccc1[N+](=O)[O-]	1.66
CCc1ccc(NC(=O)CCCN2C(=S)NC(C)(C)CC2C)cc1 (centres unmarked)	2.1
CC(C)(C)OC(=O)NCCCC[C@H](NC(=O)c1nc[nH]c1C(=O)NC1CCN(C(=O)OC(C)(C)C)CC1)C(=O)OC(C)(C)C	12.8
Cc1nc(-c2ccc(NS(=O)(=O)c3ccccc3)cc2)cs1	9.38
CCn1c(CNC(=O)C23CC4CC(CC(C4)C2)C3)nnc1SC	12.6
CCCC(=O)Nc1ccccc1NC(=O)CN(C)S(=O)(=O)c1ccccc1	9.94
O=S(=O)(c1ccccc1)n1ccc2ccccc21	1.75
CC(=O)c1ccc(-n2nnnc2SCC(=O)Nc2cccc(NC(=O)c3ccco3)c2)cc1	8.93
Cc1ccc(-n2nc3c(=O)n(C(C)C(=O)NCc4ccc5c(c4)OCO5)nc(C)c3c2C)cc1 (centres unmarked)	18.8
O=C1/C(=C/c2ccc(N3CCCC3)cc2)NC(=S)N1C1CC1	0.0667
